Viability of KB3-1 and Nalm-6 cells after 48 h of drug alone (CellTiter-Glo), 11 doses over about 4.5 log units. % of DMSO wells, lower = more cell loss; AC50 from the fitted curve, lower = more potent. No active / inactive call. Nalm-6 was screened in two runs. AC50 is listed only for well-fitted inhibitory curves. KB3-1 is a HeLa-derived carcinoma line, Nalm-6 a B-cell precursor leukaemia line.
What was measured:
Nalm-6 [1] = test: log AC50 of viability decrease (48 h) (log10 M); higher = less potent
Procedure: (§1)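 Eleven-dose screen of the NCATS MIPE 3 library on cells without co-treatment; CellTiter-Glo after 48 h. AC50 from the curve fit; only inhibitory curves of the better fit classes are listed.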

KB3-1 [2] = test: as above
Procedure: as §1

Nalm-6 [3] = test: viability (% of DMSO control); higher = more viable cells
Procedure: (§2)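 Eleven-dose screen of the NCATS MIPE 3 library on cells without co-treatment; CellTiter-Glo after 48 h, as % of DMSO wells.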

KB3-1 [4] = test: as above
Procedure: as §2

SMILES | log AC50 of viability decrease (Nalm-6 [1]; run: 2) | log AC50 of viability decrease (KB3-1 [2]) | viability (Nalm-6 [3]; run: 1, 0.00078 µM) | viability (Nalm-6 [3]; run: 1, 0.00234 µM) | viability (Nalm-6 [3]; run: 1, 0.00702 µM) | viability (Nalm-6 [3]; run: 1, 0.0211 µM) | viability (Nalm-6 [3]; run: 1, 0.0632 µM) | viability (Nalm-6 [3]; run: 1, 0.19 µM) | viability (Nalm-6 [3]; run: 1, 0.569 µM) | viability (Nalm-6 [3]; run: 1, 1.71 µM) | viability (Nalm-6 [3]; run: 1, 5.12 µM) | viability (Nalm-6 [3]; run: 1, 15.4 µM) | viability (Nalm-6 [3]; run: 1, 46.1 µM) | viability (Nalm-6 [3]; run: 2, 0.00078 µM) | viability (Nalm-6 [3]; run: 2, 0.00234 µM) | viability (Nalm-6 [3]; run: 2, 0.00702 µM) | viability (Nalm-6 [3]; run: 2, 0.0211 µM) | viability (Nalm-6 [3]; run: 2, 0.0632 µM) | viability (Nalm-6 [3]; run: 2, 0.19 µM) | viability (Nalm-6 [3]; run: 2, 0.569 µM) | viability (Nalm-6 [3]; run: 2, 1.71 µM) | viability (Nalm-6 [3]; run: 2, 5.12 µM) | viability (Nalm-6 [3]; run: 2, 15.4 µM) | viability (Nalm-6 [3]; run: 2, 46.1 µM) | viability (KB3-1 [4]; 0.00078 µM) | viability (KB3-1 [4]; 0.00234 µM) | viability (KB3-1 [4]; 0.00702 µM) | viability (KB3-1 [4]; 0.0211 µM) | viability (KB3-1 [4]; 0.0632 µM) | viability (KB3-1 [4]; 0.19 µM) | viability (KB3-1 [4]; 0.569 µM) | viability (KB3-1 [4]; 1.71 µM) | viability (KB3-1 [4]; 5.12 µM) | viability (KB3-1 [4]; 15.4 µM) | viability (KB3-1 [4]; 46.1 µM) | log AC50 of viability decrease (Nalm-6 [1]; run: 1)
CCNC(=O)c1noc(-c2cc(C(C)C)c(O)cc2O)c1-c1ccc(CN2CCOCC2)cc1 [NVP-AUY922] | -8.83 | -8.68 | 38.9% | 21.9% | 18.3% | 19.2% | 17.7% | 24.9% | 11.8% | 17% | 22.4% | 16.1% | 10.4% | 48.9% | 22% | 21.1% | 18.7% | 16.9% | 22.8% | 11.8% | 18.9% | 19.5% | 22.1% | 10.6% | 105% | 81.9% | 53.3% | 65.4% | 67% | 63.8% | 62.2% | 66.4% | 64.5% | 70% | 51.1% | –
Cc1c(C(=O)Nc2ccc(N3C[C@@H](C)O[C@@H](C)C3)nc2)cccc1-c1ccc(OC(F)(F)F)cc1 [NVP-LDE-225] | -4.68 | -4.63 | 89.3% | 89.1% | 102% | 95.9% | 97.3% | 101% | 99% | 82.1% | 68.2% | 66.5% | 8.41% | 100% | 110% | 100% | 99.6% | 94.1% | 93% | 90.4% | 87.4% | 85.7% | 69.6% | 15% | 100% | 96.7% | 101% | 98.1% | 93.7% | 91.3% | 87.5% | 81.9% | 85.8% | 81.5% | 54.3% | -4.73
CCOc1cc2ncc(C#N)c(Nc3ccc(OCc4ccccn4)c(Cl)c3)c2cc1NC(=O)/C=C/CN(C)C [Neratinib] | -5.33 | -6.03 | 111% | 115% | 114% | 125% | 112% | 120% | 111% | 87.7% | 59.4% | 1.99% | -0.315% | 110% | 111% | 108% | 110% | 106% | 102% | 101% | 82.5% | 49.1% | 13.7% | 0.28% | 106% | 111% | 106% | 106% | 101% | 101% | 93.7% | 72.6% | 68.5% | 65.1% | 57.9% | -5.28
COc1cccc2cc(-c3nc(C4CCC(C(=O)O)CC4)n4ncnc(N)c34)[nH]c12 (configuration not stated) [OSI-027] | -5.18 | -6.63 | 108% | 103% | 101% | 102% | 91.5% | 83.7% | 70.3% | 56.1% | 53.1% | 41.6% | 14.7% | 109% | 101% | 106% | 106% | 102% | 96% | 77% | 67.7% | 67.9% | 50.1% | 13.1% | 105% | 102% | 99.9% | 94.4% | 90.1% | 73.4% | 60.9% | 49.2% | 44.8% | 42.5% | 40.8% | -5.28
O=C(Nc1ccc(OC(F)(F)F)cc1)c1sccc1NCc1ccnc2ccccc12 [OSI-930] | -4.73 | -4.73 | 126% | 118% | 122% | 119% | 117% | 111% | 101% | 109% | 89.7% | 64.2% | 10.2% | 109% | 114% | 106% | 111% | 112% | 104% | 99.8% | 95.9% | 94.7% | 70.2% | 1.96% | 103% | 106% | 107% | 108% | 110% | 108% | 108% | 105% | 100% | 95.4% | 72% | -4.68
COC1=CC(c2cc3ccccc3[nH]2)=N/C1=C/c1[nH]c(C)cc1C [Obatoclax] | -6.73 | -5.18 | 119% | 107% | 117% | 109% | 93% | 65.1% | 13.4% | 8.48% | 8.73% | 4.57% | 1.59% | 97% | 101% | 108% | 99.6% | 88.5% | 54% | 10.7% | 9.28% | 6.64% | 4.05% | 1.14% | 98.3% | 94.5% | 107% | 100% | 93.5% | 92.8% | 65.1% | 64.6% | 57.1% | 41.3% | 9.52% | -6.73
CC(=O)N(C)C1(c2ccccc2)CCN(CCC[C@]2(c3ccc(Cl)c(Cl)c3)CCCN(C(=O)c3ccccc3)C2)CC1 [Osanetant] | -4.88 | -4.73 | 82.5% | 87.9% | 91.7% | 103% | 96.5% | 95.4% | 99% | 96.6% | 86.4% | 40.1% | 0.713% | 98% | 96.7% | 99.4% | 100% | 97.3% | 95.1% | 99% | 103% | 95.2% | 34.9% | 0.95% | 98.7% | 101% | 102% | 96.5% | 98.2% | 99.4% | 95.4% | 93.5% | 104% | 66.1% | 0.611% | -4.83
C=CCc1cccc(/C=N/NC(=O)CN2CCN(Cc3ccccc3)CC2)c1O [PAC-1] | -5.33 | -4.88 | 120% | 113% | 110% | 114% | 118% | 109% | 110% | 70.3% | 56.6% | 31% | 4.5% | 106% | 112% | 114% | 112% | 110% | 109% | 95.8% | 65.8% | 47.3% | 32.6% | 2.08% | 105% | 105% | 108% | 105% | 105% | 106% | 109% | 99.6% | 89.2% | 74.3% | 57.2% | -5.23
COc1cccc2c1CCCC2CCCN1CCN(C2CCCCC2)CC1 (configuration not stated) [PB-28] | -4.78 | -5.13 | 118% | 114% | 119% | 122% | 116% | 116% | 116% | 99.9% | 84.4% | 60.4% | 8.97% | 103% | 106% | 105% | 106% | 102% | 93.3% | 102% | 97.7% | 73.3% | 49.8% | 1.02% | 109% | 104% | 109% | 110% | 106% | 99.8% | 105% | 94.1% | 93.4% | 74% | 69.1% | -4.78
C[C@]1(CO)CN(c2cc(C(=O)Nc3ccc4c(c3)-c3c(c(C(N)=O)nn3-c3ccc(F)cc3)CC4)c(Cl)cn2)C[C@@]1(C)CO [PF-184] | -5.48 | -4.78 | 87.8% | 91% | 100% | 97% | 97.6% | 101% | 99.3% | 86.3% | 13.3% | 5.02% | 8.4% | 103% | 106% | 108% | 97.5% | 98.3% | 113% | 101% | 100% | 14.4% | 2.91% | 5.25% | 98.5% | 97.1% | 96% | 98.3% | 97.1% | 96.7% | 90.7% | 94.6% | 81.9% | 72.3% | 54.9% | -5.58
O=C(Nc1cccnc1)N1CCC(Cc2cccc(Oc3ccc(C(F)(F)F)cn3)c2)CC1 [PF-3845] | -4.78 | -5.18 | 82.5% | 105% | 104% | 94% | 105% | 110% | 108% | 102% | 77.8% | 58.5% | 7.17% | 107% | 99.4% | 96.4% | 96.5% | 99.5% | 105% | 101% | 97.7% | 86.8% | 47.8% | 5.36% | 93.2% | 98.1% | 100% | 102% | 101% | 107% | 99.7% | 101% | 84.8% | 71.8% | 64.4% | -4.78
COC1=CC=C2/C3=N/CCN3\C(=N/C2=C1OC)NC(=O)C4=CC=CN=C4 [PIK-90] | -4.93 | -5.43 | 115% | 119% | 115% | 109% | 111% | 97.6% | 86.3% | 73.5% | 64.2% | 49.6% | 42.3% | 96.2% | 103% | 104% | 99.9% | 99.4% | 98.8% | 94.8% | 80.1% | 76.5% | 62.9% | 43.5% | 107% | 108% | 105% | 101% | 107% | 97.8% | 92.8% | 89.4% | 76.9% | 84.4% | 66.8% | -5.83
CCCS(=O)(=O)Nc1ccc(F)c(C(=O)c2c[nH]c3ncc(Cl)cc23)c1F [PLX-4720] | -4.68 | -4.78 | 123% | 126% | 124% | 121% | 124% | 118% | 117% | 114% | 105% | 90.8% | 64.5% | 112% | 106% | 111% | 116% | 110% | 111% | 103% | 111% | 110% | 97.5% | 59.2% | 102% | 107% | 108% | 105% | 108% | 102% | 112% | 102% | 101% | 87% | 66.1% | -4.78

From the supplement of paper PMC4996465
